Data taken from the supplement of paper PMC3334620.
In all, about 33,000 sequences were measured (“E-score (-0.5 to 0.5)”: median about -0.016, highest 2% from about 0.31 on). The list shows a part of the results.

What follows are sequences tested against Cst6 (UniProt P40535) (assay: PBM E-score (8-mer binding enrichment) (E-score (-0.5 to 0.5)); higher = stronger / more preferred TF binding; most listed sequences are background and not binding sites). Conditions: protein concentration: 200 nM; construct: GST-DNA-binding domain.
Procedure: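 Universal 'all 10-mer' protein binding microarrays (Agilent AMADID 015681) probed with GST-tagged S. cerevisiae TFs (full-length or DBD) made by in vitro transcription/translation (PURExpress), about 100-200 nM. Bound TF was detected with fluorescent anti-GST. Each ungapped 8-mer (which stands for itself and its reverse complement) is scored by the PBM enrichment score (E-score), a modified Wilcoxon-Mann-Whitney statistic from -0.5 to +0.5, computed with the Universal PBM Analysis Suite. Scale: above 0.35 generally sequence-specific binding.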

Sequence	PBM E-score
GCCAAAGA	-0.0636
ACAGGCAA	0.139
CATAGGGC	-0.169
GACGGGTA	-0.0938
CATTCAGG	-0.0838
AATGTGGA	0.0346
GTAGACAC	-0.0691
ACCGATGC	-0.0117
CAAGAGCG	-0.0567
ATGACTAA	0.18
CCTGGGGA	-0.402
CGGTGTGA	-0.00213
GAATGCGC	0.0486
CTCTATCC	-0.173
CTTGCTCC	-0.172
GTCGACTA	0.158
GGTTCTAC	-0.204
AATTCAAG	0.0712
ACTTGGGA	-0.308
GCTCAAAA	0.152
ATAAGATG	0.189
ATACCACC	-0.0616
CATGCTAG	-0.0106
CATATGTC	0.212
GGCTCACC	-0.346

Sequence	PBM E-score
TGCAACAA	0.139
GTATTAGA	0.173
GCGGAGCC	-0.159
TCAAACCA	0.137
CACTCTAC	0.161
ACCAGCAG	-0.218
CGGTGGTC	-0.297
AGCCAGGA	-0.138
ACATTCAT	0.155
ATCGGGCA	-0.207
CTTGTGAA	0.054
AACGTCAA	0.401
AATATGGT	0.105
ATAGGACC	-0.376
AAACGCCA	0.18
CGTAGTCC	-0.22
AAGGTGCA	0.0268
CCCTTATA	0.00215
AAGGAAAG	-0.0714
CTCAAGTC	-0.195
AACGGGGC	0.0187
ATTTTCTC	0.129
AGTAGCCA	-0.215
AGATTCGA	-0.0176
AAAGACCT	-0.062

Sequence	PBM E-score
GATTGATA	0.146
CATGCTGC	-0.0018
CTGATAGA	0.0773
CTCATGCA	0.00428
TTATTAAA	0.264
GGCATGCC	-0.117
ATCTCCAG	-0.0495
CGCTTCCC	-0.248
AAAATCTG	0.144
TAGTAGCA	0.00148
AAAGCACC	-0.239
ATCTGTGA	0.0639
CGTATGAG	0.133
CAACCATG	0.0317
AGCTTGAG	-0.186
CCGCGGCA	0.197
GTGGCTCA	-0.0901
CAAGTCAA	-0.0333
ACAGTCCA	-0.148
TAATGCTA	0.234
GGTTCCTA	-0.261
ACAAGAGG	0.00877
GATGGGCA	-0.0276
CGGTAACG	0.0497
GGCGAGCC	-0.168

Sequence	PBM E-score
CGGCCTAA	-0.0437
CTAGCGAA	-0.28
AGATGAAA	0.0551
CATCGATC	0.118
CAGACGCA	-0.0613
GATGGGAA	-0.204
CGCCCCGA	-0.174
AGGTTAAG	-0.137
CCCCAACA	-0.22
CCTGAAGG	-0.088
GCACAAAC	0.0482
ACCTACGA	0.00194
CCAGTCGC	-0.215
AGTGCCGC	0.218
CAGGCCTA	-0.0934
CCTCAGAA	-0.0484
CACTGATA	0.0895
AGAGTTCG	0.064
GTGACGTA	0.496
AGTTCCAG	-0.134
CGTAAGGA	0.116
ATCGATGA	0.222
CCTCTCCC	-0.367
GTAAGCAC	-0.0636
TACAAGAA	0.245

Sequence	PBM E-score
CCGGGCTA	-0.378
CTAGTCAC	-0.00028
GAAAGAAA	0.221
GCTACTGA	0.111
CAGTGACC	-0.0895
CCTGCAAA	-0.202
AACGGTAA	-0.0952
ACTCCCGA	-0.272
GTAGGGTA	0.0635
AGCTATCA	0.08
GTCCAGAC	-0.301
CAGGGTAG	-0.221
AGTCTACG	-0.232
AGCAACAC	0.068
GGTCCACC	-0.251
GAGTTGCA	-0.143
CTCGAATA	-0.156
CCGCACAA	0.0801
ATGCACCG	-0.219
AAAGAATT	0.16
ACACGCGC	0.07
CTAAGGCA	-0.0149
AATCGTAG	0.0692
CGTCCCAC	0.0468
AAGGTAGA	-0.0519

Sequence	PBM E-score
AGATTTAA	0.0599
CACAGGTG	-0.0326
CTGCCCAA	-0.183
GTTGACAA	0.23
AACTACCC	-0.182
ATACGTGC	0.106
GCCCCCAA	-0.162
ACATTGGT	-0.0917
GGTAGAAC	-0.129
ACTATAAG	0.0701
GAGGTGGC	-0.11
CGACCGCA	-0.211
AATGACTA	0.041
AAGATGAT	0.229
ATGTGGGG	-0.237
AGCTGTAG	-0.119
CCTCGCTC	0.145
TGGTTCAA	0.0678
ACGTGACT	0.00931
CCTAGCAA	-0.12
GACACGAC	0.0635
CAAAGAGG	-0.0684
GATTCATA	0.106
AATCGACT	-0.114
CTAGGAGC	-0.218

Sequence	PBM E-score
CAATAGCC	-0.0299
ACATAGAG	0.00815
CAGGAAGA	-0.0433
ACGTCTGA	0.14
ACAATGCT	-0.0195
CTGACACC	-0.166
ACGGACCA	0.0335
ATCATATA	0.299
CCACAATC	-0.135
CTCCTATA	-0.222
CGTGCCTC	0.162
TAAGGACA	0.0193
GCACTTAC	0.168
GAACTGAA	0.0836
AGTCCGGC	-0.0764
CTCCCGTA	-0.275
AGCCGAAA	-0.053
CGCTGACA	0.166
GGCTTGCA	0.00048
GTGCTAAC	-0.0346
AATTTACC	0.0689
TGGATTAA	0.0667
